Results taken from the CheMixHub viscosity set.

| SMILES | viscosity (293.15 K, 101 kPa) | viscosity (298.15 K, 101.33 kPa) | viscosity (303.15 K, 101 kPa) | viscosity (303.15 K, 101.33 kPa) | viscosity (308.15 K, 101.33 kPa) | viscosity (313.15 K, 101 kPa) | viscosity (313.15 K, 101.33 kPa) | viscosity (298.15 K, 101.3 kPa) | viscosity (308.15 K, 101 kPa) | viscosity (318.15 K, 101.33 kPa) | viscosity (298.15 K, 101 kPa) | viscosity (323.15 K, 101 kPa) | viscosity (318.15 K, 101 kPa) |
| --- | --- | --- | --- | --- | --- | --- | --- | --- | --- | --- | --- | --- | --- |
| COc1ccccc1 | 1.071 ± 0.051 mPa·s [study A] and 1.07 ± 0.04 mPa·s [study B] and 1.07 ± 0.022 mPa·s [study C] and 1.28 ± 0.03 mPa·s [study D] | 0.986 ± 0.027 mPa·s [study A] and 1.002 ± 0.026 mPa·s [study B] and 0.917 ± 0.023 mPa·s [study C] and 1.085 ± 0.057 mPa·s [study D] | 0.923 ± 0.019 mPa·s [study A] and 0.92 ± 0.04 mPa·s [study B] and 0.906 ± 0.019 mPa·s [study C] and 1.04 ± 0.03 mPa·s [study D] and 0.907 ± 0.024 mPa·s [study E] and 0.9196 ± 0.009 mPa·s [study F] | 0.9315 ± 0.025 mPa·s [study A] and 0.848 ± 0.022 mPa·s [study B] and 0.941 ± 0.008 mPa·s [study C] and 0.908 ± 0.03 mPa·s [study D] and 0.908 ± 0.011 mPa·s, 0.905 ± 0.011 mPa·s [study E] and 0.915 ± 0.011 mPa·s [study F] | 0.851 ± 0.023 mPa·s [study A] and 0.8896 ± 0.024 mPa·s [study B] and 0.788 ± 0.02 mPa·s [study C] and 0.874 ± 0.008 mPa·s [study D] | 0.764 ± 0.018 mPa·s [study A] and 0.784 ± 0.05 mPa·s [study B] and 0.795 ± 0.039 mPa·s [study C] and 0.784 ± 0.016 mPa·s [study D] and 0.87 ± 0.02 mPa·s [study E] and 0.806 ± 0.02 mPa·s [study F] and 0.7814 ± 0.02 mPa·s [study G] and 0.7926 ± 0.0082 mPa·s [study H] | 0.7977 ± 0.021 mPa·s [study A] and 0.786 ± 0.026 mPa·s [study B] and 0.786 ± 0.01 mPa·s [study C] and 0.793 ± 0.009 mPa·s [study D] | – | – | – | – | – | – |
| C1CCOC1 | – | – | 0.4683 ± 0.014 mPa·s [study A] and 0.454 ± 0.012 mPa·s [study B] and 0.448 ± 0.018 mPa·s [study C] and 0.4331 ± 0.0053 mPa·s [study D] and 0.476 ± 0.01 mPa·s [study E] and 0.4656 ± 0.004 mPa·s [study F] and 0.459 ± 0.011 mPa·s [study G] and 0.5 ± 0.05 mPa·s [study H] | – | – | – | – | – | – | – | – | – | – |
| CC1COC(=O)O1 (stereo not given) | – | 2.471 ± 0.031 mPa·s, 2.471 ± 0.11 mPa·s, 2.493 ± 0.039 mPa·s, 2.471 ± 0.019 mPa·s, 2.493 ± 0.019 mPa·s, 2.493 ± 0.028 mPa·s (2×), 2.508 ± 0.016 mPa·s, 2.512 ± 0.04 mPa·s [several studies] | – | – | 2.048 ± 0.095 mPa·s [study A] and 2.048 ± 0.026 mPa·s [study B] and 2.048 ± 0.016 mPa·s [study C] and 2.041 ± 0.024 mPa·s [study D] and 2.086 ± 0.038 mPa·s [study E] and 2.041 ± 0.024 mPa·s [study F] | 1.918 ± 0.029 mPa·s [study A] and 1.873 ± 0.062 mPa·s [study B] and 1.793 ± 0.11 mPa·s [study C] and 2 ± 0.02 mPa·s [study D] | – | 2.476 ± 0.052 mPa·s [study A] and 2.512 ± 0.1 mPa·s [study B] and 2.527 ± 0.022 mPa·s [study C] and 2.55 ± 0.032 mPa·s [study D] | 2.09 ± 0.031 mPa·s [study A] and 2.042 ± 0.063 mPa·s [study B] and 1.975 ± 0.12 mPa·s [study C] and 2.11 ± 0.02 mPa·s [study D] and 2.14 ± 0.02 mPa·s [study E] | 1.723 ± 0.081 mPa·s [study A] and 1.723 ± 0.022 mPa·s [study B] and 1.724 ± 0.013 mPa·s, 1.723 ± 0.013 mPa·s [study C] and 1.718 ± 0.02 mPa·s [study D] and 1.718 ± 0.02 mPa·s [study E] | – | – | – |
| CC(C)=O | 0.3298 ± 0.0089 mPa·s [study A] and 0.323 ± 0.004 mPa·s [study B] and 0.3417 ± 0.0092 mPa·s [study C] and 0.321 ± 0.004 mPa·s [study D] and 0.326 ± 0.007 mPa·s [study E] and 0.324 ± 0.004 mPa·s [study F] and 0.3194 ± 0.0086 mPa·s [study G] | – | 0.27 ± 0.003 mPa·s, 0.33 ± 0.009 mPa·s, 0.3033 ± 0.0082 mPa·s, 0.303 ± 0.007 mPa·s, 0.293 ± 0.019 mPa·s, 0.2907 ± 0.0079 mPa·s, 0.299 ± 0.004 mPa·s, 0.294 ± 0.0034 mPa·s, 0.2633 ± 0.0047 mPa·s, 0.301 ± 0.017 mPa·s [several studies] | – | – | – | – | – | 0.281 ± 0.016 mPa·s [study A] and 0.2982 ± 0.0035 mPa·s [study B] and 0.25 ± 0.0047 mPa·s [study C] and 0.2907 ± 0.0079 mPa·s [study D] and 0.3097 ± 0.02 mPa·s [study E] and 0.288 ± 0.003 mPa·s [study F] and 0.28 ± 0.019 mPa·s [study G] and 0.2809 ± 0.0047 mPa·s [study H] | – | 0.3065 ± 0.0083 mPa·s, 0.3047 ± 0.0039 mPa·s, 0.3172 ± 0.0086 mPa·s, 0.31 ± 0.004 mPa·s, 0.3075 ± 0.0035 mPa·s, 0.316 ± 0.011 mPa·s, 0.3045 ± 0.0083 mPa·s, 0.305 ± 0.008 mPa·s, 0.3125 ± 0.0029 mPa·s, 0.311 ± 0.004 mPa·s, 0.309 ± 0.019 mPa·s, 0.277 ± 0.0048 mPa·s, 0.319 ± 0.004 mPa·s, 0.3332 ± 0.02 mPa·s, 0.3214 ± 0.0037 mPa·s, 0.308 ± 0.004 mPa·s [several studies] | 0.2639 ± 0.0032 mPa·s [study A] and 0.2547 ± 0.007 mPa·s [study B] and 0.2725 ± 0.018 mPa·s [study C] and 0.276 ± 0.007 mPa·s [study D] and 0.248 ± 0.003 mPa·s [study E] | – |
| Cc1ccccc1 | 0.5939 ± 0.0059 mPa·s [study A] and 0.584 ± 0.01 mPa·s [study B] and 0.586 ± 0.016 mPa·s [study C] and 0.5861 ± 0.015 mPa·s [study D] | – | 0.529 ± 0.014 mPa·s, 0.524 ± 0.01 mPa·s, 0.531 ± 0.004 mPa·s, 0.521 ± 0.005 mPa·s, 0.5243 ± 0.014 mPa·s, 0.521 ± 0.014 mPa·s, 0.609 ± 0.004 mPa·s, 0.5236 ± 0.014 mPa·s, 0.5275 ± 0.15 mPa·s, 0.517 ± 0.031 mPa·s, 0.539 ± 0.015 mPa·s, 0.524 ± 0.007 mPa·s, 0.527 ± 0.0055 mPa·s [several studies] | 0.538 ± 0.014 mPa·s [study A] and 0.521 ± 0.004 mPa·s [study B] and 0.479 ± 0.014 mPa·s [study C] and 0.5211 ± 0.029 mPa·s [study D] | 0.5011 ± 0.0064 mPa·s [study A] and 0.5248 ± 0.0071 mPa·s [study B] and 0.492 ± 0.014 mPa·s [study C] and 0.453 ± 0.013 mPa·s [study D] and 0.498 ± 0.004 mPa·s [study E] | – | – | – | 0.486 ± 0.004 mPa·s, 0.501 ± 0.009 mPa·s, 0.5001 ± 0.013 mPa·s, 0.583 ± 0.004 mPa·s, 0.5068 ± 0.0053 mPa·s, 0.5011 ± 0.14 mPa·s, 0.5 ± 0.01 mPa·s, 0.4923 ± 0.011 mPa·s, 0.5128 ± 0.0066 mPa·s, 0.4999 ± 0.0066 mPa·s, 0.5118 ± 0.0066 mPa·s, 0.492 ± 0.007 mPa·s, 0.498 ± 0.036 mPa·s [several studies] | – | – | – | 0.4939 ± 0.013 mPa·s, 0.538 ± 0.004 mPa·s, 0.4508 ± 0.017 mPa·s, 0.4524 ± 0.13 mPa·s, 0.45 ± 0.01 mPa·s, 0.462 ± 0.0062 mPa·s, 0.4447 ± 0.0052 mPa·s, 0.3759 ± 0.038 mPa·s, 0.448 ± 0.009 mPa·s [several studies] |

± gives the uncertainty stated by the source. Certain results were filed several times, with different values. This list holds those alone. There may be further records. The values listed for one entry repeat one measurement in other runs, samples, wells, individuals or studies. What stands in brackets tells the records apart. The letters are not those of the source and start again with each entry. Brackets with × give the number of equal values in this list.
